# Data reported in PubChem BioAssay AID504832 (National Center for Advancing Translational Sciences (NCATS), 2011).
# The whole screen tested about 310,000 compounds, of which about 18,000 (5.8%) were called active. The shares of active, inactive and inconclusive entries below differ from those in the screen. The call rests on the fitted dose curve; in most records, active means well fitted inhibition curve with a large enough effect; inconclusive means small, poorly fitted or top-dose-only effect, or another doubt; inactive means no such curve, though single readings can be large or run the other way. No potency is given beside an inconclusive call; the fits are too rough.
# Test: Primary qHTS for delayed death inhibitors of the malarial parasite plastid, 48 hour incubation
# Conditions: P. falciparum luciferase growth in erythrocytes; series mostly up to 28.7 µM; activity change, negative = inhibition: at the top concentration
# Outline: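 Firefly luciferase activity from engineered P. falciparum reports growth; inhibitors lower the luminescent signal. Cultures contained 2% hematocrit erythrocytes at 0.1% final parasitemia.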
# On the % scale 0 is the no-effect control and ±100 the full control effect; potency means the concentration at half of the fitted maximal effect; tags describe the fitted curve by direction and shape.
SMILES,Potency,"activity change, negative = inhibition"
COc1ccc(C(=O)NCc2cn3c(C)csc3n2)cc1OC,"inconclusive [inhibitor, single point]",–
CCN(CC)CCCNCC(=O)Nc1ccc(OC)c(Cl)c1,"inconclusive [inhibitor, single point]",–
Cc1c(O)ccc2c3c(c(=O)oc12)CCC(C)C3 (centres undefined),"inconclusive [inhibitor, single point]",–
Cc1cccc(N(CC(=O)NC2CCCC2)C(=O)c2cc3cc4cccc(C)c4nc3s2)c1C,"inconclusive [inhibitor, partial curve, poor fit]",–
O=C(CSc1nc2ccccc2o1)N1c2ccccc2Sc2ccc(Cl)cc21,"inconclusive [inhibitor, partial curve]",–
CC(=O)c1ccc(S(=O)(=O)Nc2cccc(-c3ccc4nncn4n3)c2)cc1,"inconclusive [inhibitor, single point]",–
CN(C)CCn1nnnc1SCC1=C(C(=O)O)N2C(=O)[C@@H](NC(=O)Cc3csc(N)n3)[C@@H]2SC1,"inconclusive [inhibitor, single point]",–
CCOC(=O)c1ccc(N2C(=O)CC(C3CCCO3)C2=O)cc1 (centres undefined),–,inactive: 12.5%
CN(c1ccc(C(=O)NC2CC2)cc1)S(=O)(=O)c1ccccc1,active: 4.65 µM,–
O=C(CC1SC(=O)NC1=O)Oc1ccc(/C=N/NC(=O)c2ccccc2O)cc1 (centres undefined),–,inactive: -0.973%
CN1Cc2cccnc2N(C)Cc2cc(Cl)ccc21,–,inactive: -25.4%
CN(c1ccc(F)cc1)S(=O)(=O)c1ccc(Cl)c(C(=O)NCC2CCCO2)c1 (centres undefined),"inconclusive [inhibitor, partial curve, poor fit]",–
CCO[C@@H]1OC(C(=O)N2CCN(Cc3ccccc3)CC2)=C[C@H](c2ccccc2)[C@H]1CCCO,"inconclusive [inhibitor, partial curve]",–
O=C(NCCN1C(=O)S/C(=C\c2cccnc2)C1=O)C1=NN(c2ccccc2)C(=O)CC1,–,inactive: -6.98%
O=C(c1cccs1)N1N=C(c2ccccc2)CC1c1ccccc1O (centres undefined),active: 3.29 µM,–
COC(=O)c1cccc(Nc2nc(-c3ccncc3)nc3ccccc23)c1,active: 1.85 µM,–
COC(=O)c1cc(C(=O)Nc2cc(C)on2)cc([N+](=O)[O-])c1,–,inactive: 18.2%
COc1ccc(/C=C(/C(=O)Nc2ccccc2C(=O)NC(C)C)c2ccccc2)cc1,"inconclusive [inhibitor, single point]",–
COc1cc(/C=C/C(=O)c2ccc([N+](=O)[O-])o2)ccc1O,active: 13.1 µM,–
Cc1[nH]n(-c2cccc(Cl)c2)c(=O)c1C=NCc1ccco1,–,inactive: 141%
CCOc1ccc(NC(=O)CSc2nnc(-c3ccccc3Cl)n2Cc2ccco2)cc1,"inconclusive [inhibitor, single point]",–
C=CCNC(=O)c1cc(-c2ccncc2)nc2c(C)cc(C)cc12,"inconclusive [inhibitor, single point]",–
O=C(/C=C/c1ccc(Cl)cc1)Nc1ccc(CN2CCOCC2)cc1,"inconclusive [inhibitor, single point]",–

SMILES,Potency,"activity change, negative = inhibition"
CCN(CC)C1=NS(=O)(=O)c2cc([N+](=O)[O-])ccc21,"inconclusive [inhibitor, partial curve, poor fit]",–
CC(Sc1nnc2c(n1)[nH]c1ccccc12)C(=O)N(C)C1CCCCC1 (centres undefined),"inconclusive [inhibitor, full curve]",–
O=[N+]([O-])c1ccc(Oc2ccc(F)cc2Br)c2ccncc12,active: 14.7 µM,–
O=C(CSc1nc2ccccc2[nH]1)N1CCN(c2ccccc2)CC1,"inconclusive [inhibitor, single point]",–
C[n+]1ccccc1/C=C1\Sc2ccccc2N1CCO,"inconclusive [inhibitor, full curve]",–
COc1ccc(OCC(=O)Nc2ccc3c(c2)nc2n3CCSC2)cc1,"inconclusive [inhibitor, partial curve, poor fit]",–
CCC(=O)NCCC(c1ccco1)c1ccccc1OC (centres undefined),"inconclusive [inhibitor, partial curve, poor fit]",–
Cc1cc2nc(-c3ccc(SCC(=O)Nc4ccc5c(c4)OCCO5)nc3)[nH]c2cc1C,"inconclusive [inhibitor, single point]",–
CCCNc1ncnc2onc(C)c12,–,inactive: 23.7%
O=C(c1ccccc1)c1ccc(OCC(O)CNCc2ccc(F)cc2)cc1 (centres undefined),"inconclusive [inhibitor, partial curve]",–
CCOC(=O)CNC(=O)Cn1cnc2c(nnn2-c2ccccc2)c1=O,–,inactive: 9.85%
CN1C(=O)[C@@H]2[C@H](C1=O)[C@@H]1C(=O)Nc3ccccc3C(=O)N1[C@@H]2c1cccc(Br)c1,–,inactive: -19.5%
O=C(Nc1cccc(Cl)c1)c1cncn1-c1ccc(F)cc1,"inconclusive [inhibitor, single point]",–
COc1ccc(/C=C2\SC(=O)N(CC(=O)Nc3ccc(F)cc3)C2=O)cc1O,–,inactive: -1.31%
CCOC(=O)C(c1ccccc1)C(Nc1ccc(Cl)c(Cl)c1)c1ccccn1 (centres undefined),"inconclusive [inhibitor, full curve, poor fit]",–
CCN(C(=O)COC(=O)Cc1ccc(F)cc1)c1c(N)n(Cc2ccccc2)c(=O)[nH]c1=O,–,inactive: 6.04%
Cc1ccc(CN2CCN(Cc3ccc(Oc4ncccn4)cc3)CC2CCO)cc1 (centres undefined),–,inactive: -7.37%
Cc1ccc(S(=O)(=O)NCCC(=O)N2CCC(Cc3ccccc3)CC2)cc1,"inconclusive [inhibitor, single point]",–
O=C1C(Nc2ccc(O)cc2)=C/C(=N/S(=O)(=O)c2cccs2)c2ccccc21,"inconclusive [inhibitor, full curve]",–
CC1C(=O)N2CCCc3cc(NC(=O)C(=O)NCCc4ccc(F)cc4)cc1c32 (centres undefined),"inconclusive [inhibitor, single point]",–
Cc1ccc(CNC(=O)c2ccc3c(=O)[nH]c4c(C(=O)NCC5CCCO5)sc(=S)n4c3c2)cc1 (centres undefined),"inconclusive [inhibitor, partial curve, poor fit]",–
COc1cc2[nH]c(=S)nc(NCc3cccs3)c2cc1OC,"inconclusive [inhibitor, single point]",–
O=C(Cc1c(O)c2ccccc2[nH]c1=O)NCc1ccccc1F,–,inactive: 3.27%

SMILES,Potency,"activity change, negative = inhibition"
COc1ccc(S(=O)(=O)N2CC(C(=O)O)Oc3ccc(CC(=O)O)cc32)cc1 (centres undefined),"inconclusive [inhibitor, partial curve, poor fit]",–
O=C(CSc1nnc(-c2ccccc2)n1C1CCCCC1)Nc1ccc(S(=O)(=O)Nc2ccccn2)cc1,–,inactive: 1.73%
CCN1CCN(C(=O)c2ccc3c(c2)N(Cc2ccc(C)cc2)CCS3)CC1,"inconclusive [inhibitor, partial curve]",–
COc1ccc(-c2cc(C(=O)NCc3ccco3)c3ccccc3n2)cc1,"inconclusive [inhibitor, single point]",–
COc1ccc(CN2CCN(C(=O)C3CCC(CNS(=O)(=O)c4ccccc4)CC3)CC2)c(OC)c1OC (centres undefined),"inconclusive [inhibitor, partial curve]",–
Cc1cccc(C(=O)NC2CCN(CC(=O)NCc3ccccc3F)CC2)c1,"inconclusive [inhibitor, partial curve]",–
Cc1ccc(N(CC(=O)NC(C)(C)C)C(=O)CNC(=O)c2cccs2)cc1,active: 7.38 µM,–
O=C(NCc1ccncc1)c1cc(C(=O)C2CCCCC2)c[nH]1,–,inactive: 254%
COC(=O)C1=C(c2cccc(OCc3ccccc3)c2)C[C@@H]2CC[C@H]1N2C(=O)NCc1ccc2[nH]ccc2c1,active: 13.1 µM,–
Nc1ccc(C(=O)Nc2ccc3nc(-c4ccncc4)[nH]c3c2)cc1,"inconclusive [inhibitor, partial curve, poor fit]",–
Cn1c(=O)cc(N2CCCCC2)[nH]c1=O,"inconclusive [inhibitor, single point]",–
CCOc1ccc(N2CC(C(=O)N3CCc4ccccc4C3)CC2=O)cc1 (centres undefined),"inconclusive [inhibitor, full curve, poor fit]",–
COC(=O)CNC(c1ccccc1)c1cc(Br)ccc1NC(=O)CNC(=O)OCc1ccccc1 (centres undefined),"inconclusive [inhibitor, single point]",–
OC(COCc1ccccc1)CN1CCCCC1 (centres undefined),–,inactive: 18%
CC(C)(C)c1nnc(NC(=S)Nc2ccccc2)s1,–,inactive: -2.65%
CCN(CC)CCNC(=O)CSc1c2c(nc3cc(Cl)ccc13)CCCC2,"inconclusive [inhibitor, full curve, poor fit]",–
CCn1c(C2CCN(Cc3ccccc3)CC2)n[nH]c1=S,–,inactive: 10.2%
C(#CCN1CCOCC1)COCCCOC(c1ccccc1)c1ccccc1,"inconclusive [inhibitor, single point]",–
CCOC(=O)c1cnc2ccc(C)cc2c1N(C)Cc1ccccc1,"inconclusive [inhibitor, single point]",–
COc1ccc(NC(=S)NCc2ccco2)cc1,–,inactive: 3.09%
Cc1ccc(CN2CCSc3ccc(C(=O)N4CCN(c5ncccn5)CC4)cc32)cc1,"inconclusive [inhibitor, partial curve]",–
CC(=O)Nc1ccc(OC(=O)c2c(-c3ccccc3Cl)noc2C)cc1,"inconclusive [inhibitor, partial curve]",–
CCN1CCN(c2ccc(S(=O)(=O)N3CCOCC3)cc2NC(=O)COc2ccc(F)cc2Cl)CC1,"inconclusive [inhibitor, single point]",–
